# Experimental data from paper PMC4336329 (PLoS ONE, 2015).
# Out of some 310,000 compounds screened, about 2,200 (0.71%) showed an effect of 50% or more. The effect is printed as a negative number. This is one part of the list.
# Molecular target: human ether-à-go-go-related gene (hERG) potassium channel (human, UniProt Q12809)
# Test: primary screen, population patch clamp on CHO cells stably expressing hERG
# Chain of human ether-à-go-go-related gene (hERG) potassium channel (Q12809 whole entry, looked up): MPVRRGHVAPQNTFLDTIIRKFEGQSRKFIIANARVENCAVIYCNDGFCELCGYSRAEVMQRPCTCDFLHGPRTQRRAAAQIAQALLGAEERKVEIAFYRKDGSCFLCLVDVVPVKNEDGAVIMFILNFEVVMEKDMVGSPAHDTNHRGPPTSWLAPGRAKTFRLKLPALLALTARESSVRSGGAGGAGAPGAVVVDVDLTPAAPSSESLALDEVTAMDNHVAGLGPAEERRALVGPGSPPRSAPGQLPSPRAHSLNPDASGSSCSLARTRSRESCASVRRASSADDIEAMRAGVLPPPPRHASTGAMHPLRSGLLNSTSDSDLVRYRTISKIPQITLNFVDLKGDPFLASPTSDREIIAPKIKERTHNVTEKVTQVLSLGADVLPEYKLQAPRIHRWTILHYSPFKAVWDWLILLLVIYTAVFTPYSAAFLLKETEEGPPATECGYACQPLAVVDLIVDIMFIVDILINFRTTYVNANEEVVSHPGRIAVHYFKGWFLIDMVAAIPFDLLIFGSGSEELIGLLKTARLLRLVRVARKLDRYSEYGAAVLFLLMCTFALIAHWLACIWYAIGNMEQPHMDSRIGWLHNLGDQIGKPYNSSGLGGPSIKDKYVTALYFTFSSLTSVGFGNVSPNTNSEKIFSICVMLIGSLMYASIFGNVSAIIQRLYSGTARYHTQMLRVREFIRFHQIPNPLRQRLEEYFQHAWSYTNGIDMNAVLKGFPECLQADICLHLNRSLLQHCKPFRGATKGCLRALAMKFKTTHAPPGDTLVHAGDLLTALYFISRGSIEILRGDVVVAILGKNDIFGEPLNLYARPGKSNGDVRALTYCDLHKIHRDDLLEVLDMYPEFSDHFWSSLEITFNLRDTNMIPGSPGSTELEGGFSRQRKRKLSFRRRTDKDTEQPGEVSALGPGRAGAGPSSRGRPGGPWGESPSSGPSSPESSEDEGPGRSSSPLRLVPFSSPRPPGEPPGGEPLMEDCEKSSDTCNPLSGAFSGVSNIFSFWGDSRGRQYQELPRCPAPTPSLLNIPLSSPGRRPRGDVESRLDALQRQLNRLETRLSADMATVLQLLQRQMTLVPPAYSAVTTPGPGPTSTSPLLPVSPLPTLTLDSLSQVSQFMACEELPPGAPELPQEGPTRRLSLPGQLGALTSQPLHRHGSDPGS
row,SMILES,"hERG current change (%, negative = inhibition) at 1uM [%]"
1,COc1ccc(CCNC(=O)Cn2nc(C(=O)O)c3ccccc3c2=O)cc1OC,18.7
2,CCOc1ccc(-n2c(SCC(=O)Nc3ccc(OC)cc3OC)nc3c(c2=O)SCC3)cc1,4.33
3,COc1ccc(N/C=C/C(=O)C(F)(F)F)cc1,-0.23
4,CC1(C)CC(n2[nH]c(=O)c3c2NC(=O)CSC3c2ccc(F)cc2)CCO1 (centres unmarked),1.61
5,COc1ccc(-c2nnc(S/C(=C/c3ccc(Cl)cc3)C(=O)O)o2)cc1,13.5
6,O=C(CN1CCN(S(=O)(=O)c2ccc(F)cc2)CC1)Nc1cccc(C(F)(F)F)c1,-10.1
7,Cc1ccc(C(=O)Nc2ccc3c(c2)ncn3C)cc1,10.1
8,CCCN1CCN(CCCNC(=O)Cn2nc(C)n3c(cc4cc(OC)ccc43)c2=O)CC1,11.4
9,CC(=O)Cc1nsc(NC(=O)c2ccc(-c3ccccc3Cl)o2)n1,4.39
10,CC(C)[C@H](NC(=O)N1CCC(Cc2ccccc2)CC1)C(=O)O,-2.51
11,CCN1CC(CN(C)Cc2nc(-c3ccc(Cl)cc3)no2)CC1=O (centres unmarked),-14.9
12,CCOC(=O)c1c(N)n(Cc2ccccc2)c2nc3ccccc3nc12,-12.1
13,O=C(c1cc(-c2ccc(Cl)cc2)n(-c2ccc(Cl)cc2)n1)N1CCOCC1,-56.8
14,C=CCOC(=O)C1=C(C)N=C2SCCC(=O)N2C1/C=C/c1ccccc1 (centres unmarked),14.3
15,CCCCC1CC(C)(C(=O)CSc2nc3ccccc3s2)OC1=O (centres unmarked),6.47
16,O=C1C2C(c3ccccc3)=NN(c3ccccc3)C2C(=O)N1c1ccccc1 (centres unmarked),11
17,O=C(COC(=O)/C=C/c1ccc(Cl)c(Cl)c1)NC1CCCC1,13.2
18,CCN(c1ccccc1)S(=O)(=O)c1cc(C(=O)OC(C)C(=O)Nc2ccc3c(c2)OCCO3)ccc1C (centres unmarked),7.97
19,CCOC(=O)C1=C(CS(=O)(=O)c2ccc(C)cc2)NC(=O)NC1c1ccc(O)c(OC)c1 (centres unmarked),16.1
20,COc1ccc(NC(=O)CN(C)C(=O)c2cn(-c3ccccc3)nc2-c2ccc(F)cc2)cc1,15.8
21,COc1ccc2c(c1)CCc1c(C(=O)N3CCCCCC3)noc1-2,-1.37
22,CNC(=O)c1sc(=S)n(-c2ccc(OC)cc2)c1N,18.1

row,SMILES,"hERG current change (%, negative = inhibition) at 1uM [%]"
1,Cc1ccc(CN2CCN(CC(=O)NC(C)CCc3ccccc3)C2=O)cc1 (centres unmarked),3.74
2,COc1ccc(-c2noc(CCC(=O)NCC3CCCO3)n2)cc1OC (centres unmarked),16.4
3,O=C(O)CN1C(=O)C(=O)N(Cc2ccccc2F)C1=O,2.93
4,Cc1cc(C)n2nc(C(=O)OCCOc3ccc(F)cc3)nc2n1,5.07
5,CC(NC(=O)COC(=O)Cn1cnc2ccccc2c1=O)C1CC2CCC1C2 (centres unmarked),7.5
6,Cc1cc2c(c(=O)n1CCN(C)C)C(c1ccccc1Br)C(C#N)=C(N)O2 (centres unmarked),5.17
7,O=C(NCCN1CCN(c2ccccc2)CC1)c1ccc(NC(=O)C2CCCO2)cc1 (centres unmarked),9.33
8,COc1cccc(CNc2ccc(S(=O)(=O)N3CCN(C)CC3)cn2)c1,5.21
9,COc1ccc(NC(=O)NNC(=O)COc2ccc3ccccc3c2)cc1,9.41
10,C=CCSc1nc(O)c(C2OC(=O)c3c2ccc(OC)c3OC)c(=O)n1-c1ccccc1 (centres unmarked),1.11
11,COC(=O)c1ccc(C(NC(=O)OCc2ccccc2)/C(C)=C/[C@@H](C)C(=O)NCc2ccc(-c3ccccc3)cc2)cc1 (some centres unmarked),2.7
12,Cc1csc(NC(=O)C(CC(C)C)NS(=O)(=O)c2ccc3c(c2)oc(=O)n3C)n1 (centres unmarked),11.1
13,Cc1cc(C)nc(SCc2cc(=O)c(OC(=O)c3cc([N+](=O)[O-])ccc3Cl)co2)n1,4.51
14,CC(=O)Nc1cccc(NC(=O)CSc2nnc(NC(=O)C3CC3)s2)c1,21.1
15,O=C(Nc1ccccc1C(=O)N1CCCCC1)c1ccc(Cl)cc1Cl,-79.6
16,CCO[C@H]1OC(C(=O)NC2CC2)=C[C@@H](C)[C@@H]1CCCO,16.4
17,O=C(O)CC1CCS(=O)(=O)C1 (centres unmarked),18.4
18,CCn1cc(S(=O)(=O)CC(=O)Nc2cc(C)on2)c2ccccc21,15.6
19,CCN(CC)C(=O)c1sc2nc(-c3cccs3)cc(-c3cccs3)c2c1N,-1.95
20,CCN1C(=O)[C@H]2[C@@H](c3ccc(C)cc3)N3C(=O)N(c4ccccc4)C(=O)[C@@]3(C)[C@H]2C1=O,3.9
21,Cc1cc(NC(=O)CSc2nnc(-c3c[nH]c4ccccc34)n2C)no1,13.7
22,c1ccc(CCN2CCC(N3CCN(c4ccccc4)CC3)CC2)cc1,-33.8

row,SMILES,"hERG current change (%, negative = inhibition) at 1uM [%]"
1,COc1ccc(CN2CCCC(C(=O)c3ccc(Cl)cc3)C2)cc1Cn1cccn1 (centres unmarked),-78.4
2,Cn1c(OCc2cccnc2)nc2c1c(=O)n(Cc1ccc(F)cc1)c(=O)n2C,-6.27
3,CC(=O)Nc1ccc(C(=O)N/N=C/c2cccnc2)cc1,15.2
4,COc1cccc(-c2nnc(NC(=O)C(C)C)o2)c1,11.8
5,CCN1/C(=C2\SC(=S)N(Cc3ccccc3)C2=O)Sc2ccccc21,9.7
6,Cc1ccc(C)c(OCCC(=O)OCC(=O)Nc2ccc(N3CCOCC3)cc2)c1,21.7
7,Cn1c(Cc2ccccc2)nnc1SCC(=O)NC1CCCC1,4.17
8,CCOc1ccc(CN2C(=O)c3ccccc3C2=O)cc1C(=O)O,9.13
9,COc1ccccc1CN1CCNC(=O)C1CC(=O)NCCCN1CCCC1=O (centres unmarked),-3.3
10,C#CCn1c(=NC(=O)CN2C(=O)CCC2=O)sc2cccc(C)c21,-0.337
11,Cc1c(NC(=O)c2cccc(NC(=O)Cc3ccc(Cl)cc3)c2)c(=O)n(-c2ccccc2)n1C,4.75
12,CCC1NC(=S)NC(C)=C1C(=O)c1ccccc1 (centres unmarked),3.52
13,COc1ccccc1CCC(=O)N1CCN(S(=O)(=O)c2cc(C(F)(F)F)ccc2Cl)CC1,10
14,CC(/C=C/c1ccccc1)=N/NC(=O)c1cc([N+](=O)[O-])cc([N+](=O)[O-])c1,11.6
15,CCN1CCN(Cc2ccc(NC(=O)Nc3ccc(SC)cc3)cc2)CC1,-8.4
16,CN(C)CCCNc1ccc(-c2nn(C)c(=O)c3ccccc23)cc1[N+](=O)[O-],12.4
17,Cc1ccc(-c2nc(C)sc2CC(=O)OCC(=O)Nc2c(F)cccc2F)cc1,4.8
18,O=C(Nc1ccc(F)cc1F)NC1CC1,12.9
19,COc1ccc(-c2nc3cnccn3c2Nc2ccc3c(c2)OCO3)cc1,-0.161
20,CCOC(=O)Nc1sc2c(c1C#N)CCCC2,10.6
21,Cc1cc(C)c2nc(N(CCN(C)C)C(=O)/C=C/c3cccs3)sc2c1.Cl,11.7
22,O=C(Nc1ccncc1)c1ccc(Br)cc1,11.4

row,SMILES,"hERG current change (%, negative = inhibition) at 1uM [%]"
1,Cc1cccc(-n2cnc3cc([N+](=O)[O-])ccc32)c1,-4.78
2,CCN(CC)S(=O)(=O)c1ccc(NCCc2ccccn2)nc1,16.7
3,COC(=O)CN(c1ccc2c(c1)OCCO2)S(=O)(=O)c1ccccc1,4.64
4,CC(C)C(=O)Nc1nnc(S(=O)(=O)N2CCCc3ccccc32)s1,9.79
5,CCCCn1nnnc1SCC(=O)N(CC)CC,16.8
6,CCOC(=O)c1c(NC(=O)CSc2nnc(-c3cccnc3)n2Cc2ccco2)sc(C)c1C,8.07
7,COc1ccc(CCNc2nc(-c3sc(N)nc3C)cs2)cc1OC,12.1
8,Fc1ccccc1Cc1noc(CN2CCN(c3ccc(Cl)cn3)CC2)n1,-5.24
9,NC(=O)NCCC1=CCCCC1,15.3
10,Cc1nn(CC#N)c(=O)n1-c1cccc(F)c1,13
11,Cc1ccc(S(=O)(=O)N2CCN(C(=O)CSC3CCCC3)CC2)c(C)c1,9.54
12,Cc1cccc(-n2c(C)nc3cc(C(=O)N4CCC5(CC4)OCCO5)ccc32)c1,-14.2
13,Cc1cc(NC(=O)CCC(=O)N(Cc2ccco2)C2(C(=O)NC3CCCC3)CCCCC2)no1,10.5
14,O=C(COC(=O)c1ccc([N+](=O)[O-])s1)Nc1cccc(S(=O)(=O)NC2=NCCCCC2)c1,7.6
15,Cc1ccc2oc(-c3cccc(NC(=O)/C=C/c4cccc([N+](=O)[O-])c4)c3C)nc2c1,3.63
16,O=C(O)C1Cc2ccccc2CN1S(=O)(=O)c1ccc(Cl)cc1 (centres unmarked),6.87
17,Cc1ccc(C)c(N2CCN(S(=O)(=O)c3ccc(-c4cc(C)no4)s3)CC2)c1,18.3
18,O=C(NC1CCCCC1)C(c1ccncc1)N(C(=O)c1csnn1)c1ccccc1 (centres unmarked),9.07
19,CCCN1CCC(NC(=S)Nc2ccc(S(N)(=O)=O)cc2)CC1,12.5
20,COc1ccc(C(C2C(=O)CC(C)(C)CC2=O)C2C(=O)CC(C)(C)CC2=O)cc1CO,9.55
